# Test results reported in PubChem BioAssay AID2546 (National Center for Advancing Translational Sciences (NCATS), 2010).
# Out of some 310,000 compounds screened, about 11,000 (3.5%) were called active. This list was built around the results that the source calls inconclusive (neither active nor inactive); the mix of calls is not that of the screen. The call rests on the fitted dose curve; in most records, active means well fitted inhibition curve with a large enough effect; inconclusive means small, poorly fitted or top-dose-only effect, or effect the other way; inactive means flat fitted curve, though single readings scatter. Potencies of inconclusive entries are left out as doubtful fits.
# Experiment: VP16 counterscreen qHTS for inhibitors of ROR gamma transcriptional activity;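 further: Gal4-VP16 expression switched on by copper sulfate through the metallothionein promoter; nearly all actives have a fitted effect of over 50% in size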
# Conditions: Drosophila S2 Gal4-VP16 UAS-luciferase, luminescence, 20 h; series mostly up to 53.6 µM
# Potency means the concentration at half of the fitted maximal effect; tags describe the fitted curve by direction and shape.
row,Compound,Potency
1,Cc1ccc(-c2csc3ncnc(N4CCN(C(=O)c5ccccc5)CC4)c23)cc1,"inconclusive [inhibitor, single point]"
2,Fc1cccc(/C=N/NC(=S)Nc2ccccc2Cl)c1,active: 1 µM
3,c1ccc2c(c1)nc(Nc1ccc(N3CCCCC3)cc1)c1nncn12,inactive
4,CC(=O)N1CCc2cc(C(=O)CN3CCN(c4ccccn4)CC3)ccc21,inactive
5,CCOC(=O)c1ccc(NC(=S)Nc2ccc(Cl)cn2)cc1,active: 8.91 µM
6,C/C(CC(=O)Nc1ccc(Cl)cc1Cl)=N\NC(=O)c1ccco1,"inconclusive [inhibitor, single point]"
7,CC(C)=C(NC(=O)c1ccccc1)C(=O)Nc1cccc(C)c1,inactive
8,Cc1onc(-c2ccccc2)c1NC(=O)Nc1c(-c2ccccc2)noc1C,inactive
9,COc1cc2c(cc1OC)-c1cc3nc4ccccc4nc3n1C(C)(C)C2,"inconclusive [inhibitor, single point]"
10,O=C(CC(O)(C(F)(F)F)C(F)(F)F)Nc1ccc(Cl)c(Cl)c1,active: 5.01 µM
11,CC(C)c1ccc(NC(=S)Nc2ccc3[nH]c(=O)[nH]c3c2)cc1,"inconclusive [inhibitor, single point]"
12,COc1ccc2nc(C)cc(N/N=C/c3ccc(F)cc3)c2c1,active: 5.01 µM
13,Cn1c(SCC(=O)c2ccccc2)nnc1-c1ccco1,"inconclusive [activator, partial curve]"
14,Cc1ccccc1OCc1n[nH]c(=S)n1-c1cccc(Cl)c1,active: 4.47 µM
15,CN1CCC(NCCC(c2ccc(F)cc2)c2ccc(Cl)cc2)CC1 (stereo not drawn),"inconclusive [inhibitor, single point]"
16,COc1ccc(N(CC(=O)NCCSCc2ccc(C)cc2)S(=O)(=O)c2ccccc2)cc1,inactive
17,COc1ccccc1OCCNCC(O)COc1cccc2[nH]c3ccccc3c12 (stereo not drawn),"inconclusive [inhibitor, single point]"
18,COc1ccc(/C=N/NC(=O)c2cccc(NC(=O)c3ccccc3Cl)c2)cc1OC,inactive
19,CSc1cccc(NC(=S)N2CCCN(Cc3ccccc3F)C2)c1,inactive
20,Oc1ccccc1Cn1c(-c2ccccc2O)nc2ccccc21,"inconclusive [inhibitor, single point]"
21,CN(CCCC[C@H](CNCc1ccc(-c2ccccc2)cc1)N1C[C@H](c2ccccc2)N(CCc2ccc(Cl)c(Cl)c2)C(=O)C1=O)Cc1ccc(-c2ccccc2)cc1,"inconclusive [inhibitor, single point]"
22,CCC(C(=O)Nc1nccs1)(C(F)(F)F)C(F)(F)F,active: 7.94 µM
23,COc1ccc(OCCSc2n[nH]c(N)n2)cc1,"inconclusive [inhibitor, partial curve]"
24,O=C(NC(=S)N1CCN(C2CCCCC2)CC1)c1ccccc1,active: 3.16 µM
25,Cc1nc(NC(C)C)c2oc3ccccc3c2n1,"inconclusive [inhibitor, single point]"

row,Compound,Potency
1,CCOC(=O)c1ccc(-c2ccc(/C=C(\C#N)C(=O)NCc3cccs3)o2)cc1,active: 3.16 µM
2,O=C(N/N=C/c1ccco1)c1cc(-c2ccc3ccccc3c2)n[nH]1,"inconclusive [inhibitor, single point]"
3,O=C(Nc1cc(Cl)ccc1N1CCOCC1)c1ccc(Br)o1,"inconclusive [inhibitor, single point]"
4,Cc1c(C)n(Cc2ccccc2)c2ncnc(NN)c12,active: 15.8 µM
5,Cc1[nH]c2ccccc2c1C(c1ccncc1)N1CCN(c2ccccc2F)CC1 (stereo not drawn),"inconclusive [inhibitor, single point]"
6,Clc1ccsc1-c1ccc2ccccc2n1,"inconclusive [inhibitor, full curve]"
7,O=C(CNC(=O)c1ccc2c(c1)OCO2)N/N=C/c1cc(Br)ccc1O,"inconclusive [inhibitor, single point]"
8,CCN1/C(=N\N)c2cccc3cccc1c23,inactive
9,COCCn1c(=O)c(CCc2ccccc2)nc2cnc(Nc3ccccc3)nc21,inactive
10,COc1cc(C(=O)NNC(=S)NC(=O)c2ccc(F)cc2)cc(OC)c1OC,"inconclusive [inhibitor, partial curve]"
11,COc1c(C(=O)Nc2nnc(C3CC3)s2)csc1Cl,"inconclusive [activator, full curve]"
12,COc1cccc(N2CCN(CC(=O)NC(C)c3ccccc3)CC2)c1 (stereo not drawn),inactive
13,Cc1ccc(CN(Cc2ccccc2)C(=S)Nc2ccccc2C)o1,"inconclusive [inhibitor, single point]"
14,CCc1ccc(NC(=O)CSc2nc3ccccc3nc2N2CCCC2)cc1,inactive
15,Cc1ccc(C(=O)N2CCN(c3ncccn3)CC2)cc1NC1=NC2CS(=O)(=O)CC2S1 (stereo not drawn),inactive
16,COc1cc2c(cc1OC)-c1c(oc3cc(O)cc(O)c3c1=O)CO2,active: 20 µM
17,CC(C)(C)c1ccc(C(=O)NNC(=S)NC(=O)c2cccnc2)cc1,"inconclusive [inhibitor, full curve]"
18,O=[N+]([O-])c1ccc(S(=O)(=O)CC2CSc3nc4ccccc4n32)cc1 (stereo not drawn),"inconclusive [inhibitor, single point]"
19,CCCn1cc(CN2CCC(n3nccc3NC(=O)C(OC)c3ccccc3)CC2)c(C)n1 (stereo not drawn),inactive
20,COc1ccc(C(=O)NC(=S)Nc2cccc(NC(=O)c3ccco3)c2)cc1[N+](=O)[O-],"inconclusive [inhibitor, partial curve]"
21,CC(C)Cn1c(C(C)C)nc([N+](=O)[O-])c1S(=O)(=O)c1ccc(F)cc1,"inconclusive [inhibitor, single point]"
22,Cc1cc(C)nc(Nc2nc3ccccc3[nH]2)n1,inactive
23,CC(=O)c1cccc(NC(=O)CN(C)S(=O)(=O)c2ccc3c(c2)CC(C)N3C(C)=O)c1 (stereo not drawn),"inconclusive [inhibitor, single point]"
24,Cc1ccc(C(=O)N2N=C(CC(C)C)CC2(O)C(F)(F)F)o1 (stereo not drawn),"inconclusive [inhibitor, single point]"
25,CC(C)(C)C1C/C(=C/c2ccco2)C(=O)/C(=C/c2ccco2)C1 (stereo not drawn),"inconclusive [inhibitor, single point]"

row,Compound,Potency
1,O=C(NCc1cccnc1)c1c[nH]c2cc3c(cc2c1=O)OCCO3,"inconclusive [inhibitor, single point]"
2,COc1cc(Cl)ccc1OCc1cc(C(=O)N2C[C@H]3CC[C@H]2C3)no1,"inconclusive [activator, full curve, poor fit]"
3,CCN(CC)S(=O)(=O)c1ccc(Oc2cccc(C(C)=O)c2)nc1,"inconclusive [inhibitor, single point]"
4,CCOC(=O)c1ccc(NC(=O)c2nc[nH]c2C(=O)N[C@@H](CCCCNC(=O)OC(C)(C)C)C(=O)OC(C)(C)C)cc1,"inconclusive [inhibitor, single point]"
5,C=CCN(c1ccccc1)S(=O)(=O)c1cc2c(cc1C)NC(=O)CO2,"inconclusive [inhibitor, single point]"
6,CC[n+]1c(C=C2C=C(C)OC(C)=C2)sc2ccccc21,active: 10 µM
7,COc1nccnc1NS(=O)(=O)c1ccc(NC(=S)NC(=O)c2ccc(F)c(F)c2)cc1,inactive
8,CC(C)(C)c1ccc(Cn2cnc(-c3ccc([N+](=O)[O-])cc3)c2)cc1,"inconclusive [inhibitor, single point]"
9,S=C(NCCc1ccccc1)N/N=C/c1cccc(Cl)c1Cl,"inconclusive [inhibitor, single point]"
10,COc1ccccc1CCC(=O)Oc1ccc(C#N)cc1OC,active: 11.2 µM
11,Cc1ccccc1C(=O)Nc1cccc(C(=O)N/N=C/c2cc(Cl)cc([N+](=O)[O-])c2O)c1,active: 2.51 µM
12,CN(Cc1ccccc1)C(=O)COc1ccc(N(C)S(=O)(=O)c2ccc(F)cc2)cc1,inactive
13,Cn1c(CSCc2ccc(Cl)c(Cl)c2)n[nH]c1=S,active: 3.98 µM
14,Clc1ccc(N2CCN(/N=C/c3ccncc3)CC2)cc1,"inconclusive [inhibitor, single point]"
15,CC(/C=N/NC(=O)c1cc(-c2ccc(C)o2)[nH]n1)=C\c1ccccc1,"inconclusive [inhibitor, single point]"
16,CCCN(/C=N/c1sc2c(c1C#N)CCCCC2)CCC,"inconclusive [inhibitor, single point]"
17,COC(=O)c1ccccc1NC(=O)N1CCN(c2ccccc2F)CC1,"inconclusive [inhibitor, single point]"
18,CCOC(=O)c1c(NC(=O)COc2cccc3c2CCN(C)C3=O)sc2c1CCC2,"inconclusive [inhibitor, single point]"
19,O=C(Nc1ccc(F)c(Cl)c1)Nc1csc2ccccc12,"inconclusive [inhibitor, single point]"
20,N#CC1=C(N)Oc2c(ccc3ccccc23)C1c1cccs1 (stereo not drawn),inactive
21,CC(=O)N1c2ccc(S(=O)(=O)NCC3CCC(C(=O)NCc4ccccc4)CC3)cc2CC1C (stereo not drawn),inactive
22,COc1ccc(C2=Nc3nc(-c4ccccc4)cn3C(c3ccc(OC)cc3)C2)cc1 (stereo not drawn),"inconclusive [activator, partial curve]"
23,O=c1c2ccccc2cnn1-c1ccc2ccccc2c1,"inconclusive [inhibitor, partial curve]"
